Experimental data: PubChem BioAssay AID463173 (ICCB-Longwood Screening Facility, Harvard Medical School, 2010)
About 4,300 (8.3%) of roughly 52,000 compounds were called active. Rule as the data show it: active = survival mostly below about 52% (no sharp cut-off); inactive = mostly above about 56%. Some of the results follow.

These compounds were tested on DeltatarO mutant (assay: S. aureus survival, RN4220 and DeltatarO strains – OD600, teichoic acid synthesis inhibitors, primary screen (AID 463173)). Details: S. aureus RN4220 wild type/DeltatarO growth, OD600, 18 h, stronger effect = lower value, screened at 18.75 µg/mL (by protocol).
For `COc1cc(-c2nnc(SCCOc3ccc(C)c(Cl)c3)o2)cc(OC)c1OC`, the survival was inactive: 115%.
`COc1cccc(C(=O)c2cn(CC(=O)Nc3cccc(C)c3C)c3nc(C)ccc3c2=O)c1` was tested, and the survival was inactive: 67%.
`CCOCCCn1c(SCC(=O)Nc2ccc(OC)cc2OC)nc2ccccc2c1=O` was tested, and the survival was inactive: 89%.
With `Cc1c(NC(=O)c2cc(=O)c3cc(Cl)ccc3o2)c(=O)n(-c2ccccc2)n1C` the survival was active: 43%.
`Cn1cnc2c(=O)oc3ccc(S(=O)(=O)N4CCN(c5cccc(Cl)c5)CC4)cc3c21` was tested, and the survival was active: -5%.
For `Cc1cccc(-c2nc(Cn3c(SCc4cccc(C(F)(F)F)c4)nc4ccncc43)c(C)o2)c1`, the survival was inactive: 79%.
In the case of `Fc1ccc2c(c1)NC(c1ccncc1)=NC(c1cccs1)=N2`, the survival is reported as active: 30%.
In the case of `COc1ccc(N2CC(NC(=O)c3ccc(S(=O)(=O)N4CCCCC4)cc3)CC2=O)cc1OC` (stereo not given), the survival is reported as inactive: 113%.
`Cc1cccc(NC(=O)c2cc(S(=O)(=O)N3CCC4(CC3)OCCO4)ccc2F)c1` was tested, and the survival was inactive: 85%.
With `O=C(CCNS(=O)(=O)c1ccc2c(c1)CCN2C(=O)C1CC1)Nc1ccc(F)cc1F` the survival was inactive: 72%.
For `CCOC(=O)c1ccc(NC(=O)Cn2cc(C(=O)c3ccc(Cl)cc3)c(=O)c3ccc(C)nc32)cc1`, the survival was inactive: 78%.
`COc1cc(OC)cc(-c2nc3nc(C)c(CCC(=O)Nc4cc(F)ccc4F)c(C)n3n2)c1` was tested, and the survival was inactive: 74%.
With `O=C(NCCc1csc(-c2ccc(F)cc2)n1)c1ccc(Br)o1` the survival was inactive: 92%.
In the case of `Cc1ccccc1CN1CCN(CC(=O)NCc2ccccc2Cl)C1=O`, the survival is reported as inactive: 78%.
With `COc1ccc2oc(-c3ccc(C)c(NC(=O)Cc4ccc(Cl)cc4)c3)nc2c1` the survival was inactive: 151%.
`O=C(C1=C(N2CCCCC2)c2ccccc2S(=O)(=O)N1)c1ccccc1` was tested, and the survival was inactive: 94%.
For `CCC(=O)Nc1nnc(S(=O)(=O)N2CCc3ccccc32)s1`, the survival was inactive: 76%.
For `Cc1nc2c(C(=O)NC(C)c3ccccc3)cnn2c(C)c1Cc1ccccc1` (stereo not given), the survival was inactive: 72%.
With `COC(=O)c1cc2occc2n1Cc1nc(-c2ccc(C)cc2)oc1C` the survival was inactive: 69%.
In the case of `CCN(CC)C(=O)c1ccccc1C`, the survival is reported as active: 48%.
In the case of `COc1cccc2sc(N(Cc3cccnc3)C(=O)C3COc4ccccc4O3)nc12` (stereo not given), the survival is reported as inactive: 102%.
For `COc1ccc(N(C)C(=O)CCS(=O)(=O)c2cccc3nsnc23)cc1`, the survival was inactive: 49%.
For `Cc1c(NC(=O)c2ccccc2F)cccc1-c1nc2cccnc2s1`, the survival was inactive: 90%.
With `CCOc1ccc(-n2c(SCC(=O)NC3CCCC3)nnc2-c2ccoc2C)cc1` the survival was inactive: 92%.
`Cc1ccc(Nc2nc3ccccc3c3nncn23)cc1C` was tested, and the survival was active: -4%.
With `O=C(Cn1ncc2c(=O)oc3ccccc3c21)NCc1ccc(Cl)cc1` the survival was inactive: 86%.
`CC(=O)N1CCCc2cc(S(=O)(=O)N(C)CC(=O)Nc3ccc(Cl)cc3C)ccc21` was tested, and the survival was inactive: 113%.
`CCn1cc(C(=O)NCc2ccccc2)c(=O)c2cc(S(=O)(=O)N3CCCCCC3)ccc21` was tested, and the survival was inactive: 67%.
For `COc1ccc(NC(=O)c2ccc(COc3ccccc3OC)o2)cc1OC`, the survival was inactive: 61%.
In the case of `Cc1ccc(OCc2nc3ccccc3n2Cc2ccccc2Cl)cc1`, the survival is reported as active: -8%.
With `COc1ccc(Br)cc1CNC(=O)C1CCCCN1S(=O)(=O)c1ccc(F)cc1` (stereo not given) the survival was inactive: 81%.
In the case of `CCCNC(=O)CCc1c(C)nc2nc(-c3cc(OC)cc(OC)c3)nn2c1C`, the survival is reported as inactive: 81%.
With `COc1cccc(CNC(=O)CCC(=O)N2Cc3cccc(OC)c3Oc3ncccc32)c1OC` the survival was inactive: 80%.
`CCc1ccc(-c2[nH]c3c(c2-c2sc(C)c(C(=O)OC)c2O)c(=O)n(C)c(=O)n3C)cc1` was tested, and the survival was inactive: 51%.
With `CCN(CC)/C(N)=N/c1nc(C)cc(C)n1` the survival was inactive: 93%.
`CC1Cn2cc(C(=O)Nc3cccc(C(F)(F)F)c3)c(=O)c3c(Cl)ccc(c32)O1` (stereo not given) was tested, and the survival was inactive: 83%.
`Cc1ccc(-c2onc(C)c2C)cc1S(=O)(=O)NC1CCCCC1` was tested, and the survival was inactive: 77%.
For `COC(=O)c1nnn(CC(=O)Nc2ccc(Br)c(C)c2)c1N`, the survival was inactive: 90%.
`Cc1ccc(-n2c(=O)c3c(c4cc(C)ccc4n3C)n(CC(=O)Nc3cc(C)cc(C)c3)c2=O)cc1` was tested, and the survival was inactive: 105%.
With `COc1ccc2c(c1)CCc1c(C(=O)Nc3c(C)nn(Cc4ccc(C)cc4)c3C)noc1-2` the survival was inactive: 64%.
With `Cc1ccc(C)c(NC(=O)c2cc(S(=O)(=O)NCCC3=CCCCC3)ccc2F)c1` the survival was active: 52%.
`CCCN(CCC)C(=O)C1CCN(c2ncnc3c2nc2n3CCCCC2)CC1` was tested, and the survival was inactive: 84%.
With `COc1ccc(CNC(=O)C(C(C)C)N2Cc3ccccc3C2=O)cc1` (stereo not given) the survival was active: -5%.
For `CCOc1ccc(CCNC(=O)CN(c2ccc(C)cc2)S(=O)(=O)N(C)C)cc1OCC`, the survival was inactive: 84%.
For `O=c1c(S(=O)(=O)c2ccccc2)cn(Cc2ccc(F)cc2)c2cc(N3CCCCC3)c(F)cc12`, the survival was inactive: 80%.
With `CC(NC(=O)C(=O)Nc1c2c(nn1-c1ccc(F)cc1)CSC2)c1ccccc1` (stereo not given) the survival was active: -2%.
With `COc1cccc(CNC(=O)CCn2cccn2)c1` the survival was inactive: 86%.
With `CCOC(=O)c1c(-c2ccc(OC)cc2)oc2ccc(OCc3ccc(C(=O)OC)cc3)cc12` the survival was inactive: 48%.
In the case of `NCCNC(=O)c1ccco1`, the survival is reported as inactive: 99%.
For `CCNc1c(NC(=O)c2cc(OCC)c(OCC)c(OCC)c2)c(=O)oc2ccccc12`, the survival was inactive: 98%.
For `CC(C)(C)C(=O)Nc1cccc(C(=O)OCc2cc(=O)n3nc(C4CCCCC4)sc3n2)c1`, the survival was inactive: 124%.
With `O=C(CSc1nc2ccccc2n1Cc1ccccc1Cl)NCc1ccccc1` the survival was inactive: 96%.
With `N#C/C(=C\c1ccc(-c2cc(Cl)ccc2Cl)o1)C(=O)Nc1ccccc1C(=O)O` the survival was active: 37%.
With `CCCCN(C)CCNC(=O)c1nn(-c2ccc(OC)cc2)c(=O)c2c1c1ccccc1n2C` the survival was inactive: 105%.
With `CCOC(=O)c1[nH]cnc1C(=O)Nc1ccc(F)cc1` the survival was inactive: 64%.
`COc1cccc(CNC(=O)CCNS(=O)(=O)c2ccc3c(c2)oc(=O)n3C)c1` was tested, and the survival was inactive: 93%.
For `Cc1cc(C)c(Cn2c(C(O)c3ccccc3)nc3ccccc32)c(C)c1` (stereo not given), the survival was active: 31%.
`CCC(=O)N1CCc2cc(Br)cc(S(=O)(=O)NCCc3ccccc3)c21` was tested, and the survival was active: 43%.
For `CCOC(=O)c1c(NC(=O)COc2ccc(F)cc2)sc2c1CCC(C)C2` (stereo not given), the survival was inactive: 70%.
For `CCc1cc(C=Nc2ccccc2)c(O)s1`, the survival was inactive: 98%.
In the case of `O=C(NCCCN1CCN(c2ccccc2F)CC1)c1nnc(Cc2ccc(Cl)cc2Cl)o1`, the survival is reported as inactive: 80%.
In the case of `COc1cccc(C(=O)Nc2ccc(NC(=O)c3ccc(C(C)(C)C)cc3)cc2)c1`, the survival is reported as inactive: 105%.
In the case of `COC(=O)C(CCSC)NC(=O)c1cc2c(n(-c3ccc(OC)cc3)c1=O)CC(C)(C)CC2=O` (stereo not given), the survival is reported as inactive: 71%.
`COc1ccc(S(=O)(=O)Nc2cccc(-c3ccc(N4CCCCCC4)nn3)c2)c(OC)c1` was tested, and the survival was inactive: 74%.
With `COc1cccc2c1Oc1ncccc1N(c1ccc(C(=O)NCc3cccc(C)c3)s1)C2` the survival was inactive: 80%.
With `CC1(C(=O)Nc2ncc(Cc3ccc(Br)cc3)s2)Cc2ccccc2C(=O)O1` (stereo not given) the survival was inactive: 113%.
`Cc1ccc(N2CC(NC(=O)C3CCCCC3)CC2=O)cc1C` (stereo not given) was tested, and the survival was inactive: 102%.
For `CCOC(=O)CC(N)c1ccc2c(c1)OCO2` (stereo not given), the survival was inactive: 73%.
In the case of `CCc1ccccc1Nc1nn2c(=O)c3ccc(C(=O)NC4CCCCC4)cc3nc2s1`, the survival is reported as inactive: 75%.
In the case of `CCOC(=O)c1c(N)n(-c2cccc(C)c2C)c2nc3ccccc3nc12`, the survival is reported as inactive: 67%.
In the case of `Cc1ccn2c(=O)c(C(=O)NCc3ccccc3Cl)c(O)nc2c1`, the survival is reported as inactive: 81%.
With `COc1cc(OC)c(NC(=O)c2c3c(nn2C)-c2ccccc2SC3)cc1Cl` the survival was inactive: 114%.
In the case of `CC(=O)N1CCN(c2nc(N3CCCCC3)nc(N3CCCCC3)n2)CC1`, the survival is reported as inactive: 79%.
`Cc1ccc(-n2ncc(C(=O)Nc3c(Cl)cccc3Cl)c2C2CCNCC2)cc1` was tested, and the survival was inactive: 131%.
For `Cc1nn(-c2ccccc2)c2sc(C(=O)Nc3cccc(O)c3)cc12`, the survival was active: 5%.
With `Cc1ccc(-c2nc(CS(=O)(=O)CC(=O)Nc3cc(C)ccc3C)c(C)o2)cc1` the survival was inactive: 122%.
For `Cn1c(=O)cc(OCC(=O)NCc2ccc(F)cc2Cl)c2ccccc21`, the survival was inactive: 126%.
With `Cc1csc2nc(COc3ccccc3NC(=O)c3ccccc3Cl)cc(=O)n12` the survival was inactive: 77%.
`COc1cc(CN(C(=O)COc2ccc(Cl)c(C)c2)c2ccccn2)cc(OC)c1OC` was tested, and the survival was inactive: 62%.
For `CCC(C)NC(=O)c1ccc2nc(Cc3ccccc3)oc2c1` (stereo not given), the survival was inactive: 102%.
With `COc1ccc(-c2nc3scc(CCNC(=O)Cc4ccc(F)cc4)n3n2)cc1` the survival was inactive: 95%.
For `O=C(Nc1cc(Cl)cc(Cl)c1)c1ccc(F)c(S(=O)(=O)NCc2ccccc2Cl)c1`, the survival was inactive: 93%.
In the case of `CCN(c1ccccc1)S(=O)(=O)c1nnc(NC(=O)c2ccco2)s1`, the survival is reported as active: 39%.
`CCOc1ccc(NS(=O)(=O)c2ccc3nc(-c4ccccc4)[nH]c3c2)cc1` was tested, and the survival was inactive: 64%.
In the case of `Cc1cccc(-c2nc(CSCC(=O)N3CCN(c4cccc(C)c4C)CC3)c(C)o2)c1`, the survival is reported as active: 8%.
In the case of `Cc1ccc(C)c(N2CCN(S(=O)(=O)c3cc(C(=O)Nc4cc(Cl)cc(Cl)c4)ccc3F)CC2)c1`, the survival is reported as inactive: 87%.
For `O=C(CSc1nc(-c2cccs2)nc2cc(=O)[nH]n12)Nc1ccccc1Cl`, the survival was inactive: 76%.
In the case of `COc1cc(C2CC(=O)Nc3c2c(C)nn3-c2nncc(-c3ccccc3)n2)cc(OC)c1OC` (stereo not given), the survival is reported as inactive: 56%.
With `O=C(Nc1ccccc1Cl)c1cc2c(-c3ccccc3)nn(-c3ccccc3)c2s1` the survival was inactive: 56%.
In the case of `CC(=O)Nc1nnc(SCC(=O)N2C(C)CCCC2C)s1` (stereo not given), the survival is reported as inactive: 54%.
